From the supplement of paper PMC3334620
In all, about 33,000 sequences were measured (“E-score (-0.5 to 0.5)”: median about -0.013, highest 2% from about 0.3 on). The list shows a part of the results.

target: T1, Msn1 (UniProt P22148); experiment: PBM E-score (8-mer binding enrichment) (E-score (-0.5 to 0.5)); higher = stronger / more preferred TF binding; most listed sequences are background and not binding sites; details: protein concentration: 200 nM; construct: GST-full length
T1 sequence: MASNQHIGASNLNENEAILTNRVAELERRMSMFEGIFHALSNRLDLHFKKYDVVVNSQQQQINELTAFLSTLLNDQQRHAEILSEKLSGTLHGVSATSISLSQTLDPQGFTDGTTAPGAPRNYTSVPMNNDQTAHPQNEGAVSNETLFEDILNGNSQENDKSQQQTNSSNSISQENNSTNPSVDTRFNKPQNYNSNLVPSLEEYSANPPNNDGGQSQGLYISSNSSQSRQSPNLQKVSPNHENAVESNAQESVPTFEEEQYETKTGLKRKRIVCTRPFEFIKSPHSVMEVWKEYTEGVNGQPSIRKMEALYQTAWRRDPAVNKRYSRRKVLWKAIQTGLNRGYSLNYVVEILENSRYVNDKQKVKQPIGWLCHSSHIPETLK
Procedure, shortened: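 Detection of bound protein used fluorescent anti-GST, with scans normalised by masliner. The proteins were GST-tagged yeast transcription factors applied at about 100-200 nM to universal all-10-mer Agilent arrays made double-stranded by primer extension. Each ungapped eight-base word, pooled with its reverse complement, was scored with an E-score from the Universal PBM Analysis Suite.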

Sequence | PBM E-score
AGAACCCC | -0.209
CTGGGGCA | -0.258
TAACGTCA | 0.155
GTAAACGA | -0.148
GCGAGAAA | 0.0329
AACCGGCC | -0.00471
GTGACTGA | 0.0999
CCTGTTCG | -0.00437
AACTTCAT | 0.144
GGGATTCA | 0.0945
TGTATGAA | 0.0909
CTCGTATA | -0.0671
CCACCTCG | -0.228
AAAAGTAA | 0.25
ACTGCCTA | 0.029
ACATCCAG | 0.0584
AGGTGAAT | 0.0469
CGATAGCC | -0.0589
CCGAAAGG | -0.0079
CACGACGG | 0.178
GAGAGCTC | -0.248
CTCCACTA | 0.0243
AATCGCGT | 0.0236
AGATCCAG | -0.0622
ATCAGTTC | -0.0766

Sequence | PBM E-score
AATCGGTA | -0.049
AGTTGGAA | 0.0352
CATTCGCA | 0.0837
GAATGTGA | 0.076
TCACCTAA | 0.102
AAGGCCCT | -0.0795
CCCACCAA | -0.228
CTCAAAGC | 0.015
AGTCGCAA | 0.036
ATTAATAG | 0.0264
AGGGTCAT | -0.0217
AGCGTACG | -0.163
GTGTAGTA | 0.00943
CTGGCTGA | -0.201
AACGTCGT | -0.098
CTAGAACA | 0.133
CCGTAAGA | -0.174
ACCTTAGC | -0.0675
GGGCCCCC | -0.45
AACCCCGA | 0.0744
TGAGCGAA | 0.0506
TGGTCCAA | -0.0938
CTAGGGAG | -0.254
AGGTAGGA | -0.0106
GACCTAAA | 0.0444

Sequence | PBM E-score
ACACGATA | 0.16
GAAAGCAA | 0.0864
CCCGTCCC | -0.321
GTAACTGA | -0.136
CGAGCATA | -0.128
CAAGGCTC | -0.118
AAGTGCCA | -0.104
GGATGCAA | -0.137
CGAAAAAC | 0.103
GTTGTGGA | 0.0318
TCAACCGA | 0.0857
CAGTATGG | 0.0977
AAACTGGA | 0.0493
CATTACAA | 0.153
AAACATAT | 0.258
CCACAGTC | -0.296
CAGCGTAA | -0.0415
CGATCGTC | 0.0286
ATAGGGGC | -0.221
AGAGACGA | -0.00333
ACCGTTCC | -0.00636
CCGTGAGC | -0.1
CACCAGTA | -0.0132
GCAGTGGC | -0.202
AAACGTCG | 0.132

Sequence | PBM E-score
AATTATGT | 0.301
GAACTGGC | -0.223
ACTACGCG | -0.0611
CCGAATCG | 0.0428
AGACCACA | -0.0688
AGAAGAGC | -0.0669
CGAAGAGA | 0.0234
AGGCATCA | -0.111
CCGCACCC | -0.301
CGCCGACC | -0.126
ACGCCCAG | -0.176
TCAGATAA | 0.132
AGATCGCA | -0.0555
AACAGTCC | -0.132
GGCGGGCA | -0.0685
ACGGACCT | 0.0608
AGGAAGCG | -0.113
AGAAGGTG | -0.044
GGGGTAAA | 0.033
AGTAGGAG | -0.296
AGAAAGCT | 0.105
GGGACTGA | -0.182
CTGGATGA | -0.114
CCGCTAGA | -0.187
ATACACTG | 0.0602

Sequence | PBM E-score
GCTGGGAC | 0.228
ACACTCGG | 0.183
GACATACC | 0.4
AATCTTTC | 0.134
GCACCCTA | -0.242
AATCCGTA | -0.107
AATCACTG | 0.00361
GTATGAAC | -0.0402
CGGTGCGC | -0.133
CACTGCTC | -0.0559
CACGTCTA | 0.0316
GGTTATAC | -0.0112
ATATACCC | 0.23
CGCGAGCG | -0.171
ATGAGAAT | 0.0723
AAGACACT | 0.163
AGGTCTGG | -0.221
CGCACGAG | -0.274
CTATACAG | -0.0109
AGTTCTTA | 0.105
ACAGGTCG | -0.0517
AACCAACC | 0.0193
ATAGTTAC | 0.0597
AATTGTGG | 0.134
CTGTAGGC | -0.107

Sequence | PBM E-score
TCTCATCA | 0.118
ATTAATCG | 0.134
GGCTCTGA | -0.0115
ATCACTTA | -0.0508
GTGGGGCA | -0.102
CTACACTA | -0.196
GGTGTAAA | -0.184
CTTACTTA | 0.00884
CACGTTAC | -0.1
CTGTGTTA | 0.127
GGTTTCTA | -0.0691
ATTATCCA | 0.124
GTCGTTCA | -0.00823
GATTTAAC | 0.156
CTACGGCA | 0.0653
CCGGCCAA | -0.0313
AATGCCAG | -0.0323
CCTGCATC | -0.0199
ACGATACT | -0.0977
ATGCGTAG | -0.201
CGGCGAGA | 0.05
ATGCCACC | -0.326
CTACATAC | 0.0824
ATTATAGC | -0.0661
GCTGGCGA | -0.343

Sequence | PBM E-score
CAGTGGAC | 0.0261
CGGAGCAG | -0.0649
ATGCCTCA | -0.0924
TAGTCGAA | 0.124
AGTACGAA | 0.206
CGCCAGCA | -0.196
TATATGCA | 0.102
GTAGTAGA | -0.00365
CAACAACA | 0.135
CCCAGCGG | -0.119
ATTGGGCC | -0.0889
CGGCATTA | 0.203
GCATGGCC | -0.123
GCCTTCCC | -0.35
TCGTACGA | 0.167
AACCACGG | -0.104
ATATAATC | 0.182
CAATGGGG | -0.111
CTGGGGGA | -0.285
CGAACACC | -0.0131
CATAGTTC | -0.00808
AGGAGGAC | -0.0659
